# Results from PubChem BioAssay AID886 (National Center for Advancing Translational Sciences (NCATS), 2007).
# Among all 73,000 compounds or so, about 2,500 (3.4%) were called active. Inconclusive means that the source gave no clear call. Such entries were picked first, then a sample of the others. Calls come from the whole dose curve; as a rule, active = well fitted inhibition curve with a large enough effect; inconclusive = small, poorly fitted or top-dose-only effect; inactive = no such curve, though single readings can be large or run the other way. A potency beside an inconclusive call is a rough fit, not a confirmed value.
# Target: 3-hydroxyacyl-CoA dehydrogenase type-2 (Homo sapiens) (UniProt Q99714)
# Assay: qHTS Assay for Inhibitors of HADH2 (Hydroxyacyl-Coenzyme A Dehydrogenase, Type II); note: nearly all actives have a fitted effect of over 60% in size
# Conditions: recombinant HADH2, NADH fluorescence, beta-hydroxybutyryl-CoA; activity change, negative = inhibition: at 57.1 µM (top of the series)
# Outline: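 NADH fluorescence (ex 360/em 450 nm) read every 30 s for 4 min; activity taken as last-minus-first time point difference. Enzyme 20 nM, NAD+ 1 mM, beta-hydroxybutyryl-CoA 90 uM, pH 9.0 Tris buffer.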
# % is set by controls: 0 for no effect and ±100 for the full control effect; potency is the fitted concentration of half-maximal effect; tags give direction and shape of the fitted curve.
# Sequence of UniProt Q99714 (Q99714 whole entry, looked up): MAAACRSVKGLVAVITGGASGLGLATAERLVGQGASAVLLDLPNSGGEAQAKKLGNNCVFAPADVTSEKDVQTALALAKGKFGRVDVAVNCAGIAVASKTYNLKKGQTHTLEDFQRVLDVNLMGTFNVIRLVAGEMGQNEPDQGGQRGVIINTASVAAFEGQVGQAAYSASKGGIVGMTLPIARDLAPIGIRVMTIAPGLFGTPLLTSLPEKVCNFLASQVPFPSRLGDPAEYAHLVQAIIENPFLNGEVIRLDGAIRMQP
# Sequence of UniProt Q99714 (Q99714 whole entry, looked up): as above
Compound,Potency,"activity change, negative = inhibition"
O=c1[nH]c(=S)c2[nH]c(=O)n(-c3ccccc3)c2[nH]1,"inconclusive: 3.98 µM [inhibitor, single point]",–
c1nc(NC2CCCCCC2)c2[nH]cnc2n1,"inconclusive: 31.6 µM [inhibitor, single point]",–
COc1ccc(C)cc1NC(=O)c1nc2nc(C)cc(C)n2n1,–,inactive: 56.9%
O=C1C(Cl)=C(N2CCOCC2)C(=O)N1c1cccc(Cl)c1,active: 3.98 µM,–
COc1ccccc1-c1nccc(NCc2cccs2)n1,"inconclusive: 31.6 µM [inhibitor, single point]",–
[N-]=[N+]=CC(=O)CNC(=O)[C@@H](Cc1ccccc1)N1C(=O)c2ccccc2C1=O,–,inactive: -8.37%
O=C(Nc1ccc(Cl)cc1)c1ccc2c(c1)OCO2,–,inactive: 5.5%
COc1ccccc1C1C=C(c2ccccc2)Nc2nnnn21 (stereo unspecified),"inconclusive: 3.16 µM [inhibitor, partial curve]",–
Cc1ccc2nc(-c3ccccc3)cc(C(=O)O)c2c1,"inconclusive: 39.8 µM [inhibitor, single point]",–
N#Cc1c(N)oc(-c2cccs2)c1-c1cccs1,"inconclusive: 25.1 µM [inhibitor, partial curve]",–
CC1(C)CCC[C@@]2(C)[C@@H]1CC[C@]1(C)OC(=O)C[C@@H]21,–,inactive: 11.3%
CCN1C(=O)[C@@H]2[C@H]3C(=CC[C@@H]2C1=O)C1(OCCCO1)[C@H]1O[C@@H]1[C@H]3O,active: 0.794 µM,–
CCCCCCCC[N+](CCCCCCCC)(CCCCCCCC)CCCCCCCC,"inconclusive: 25.1 µM [inhibitor, partial curve]",–
Cc1cc(NC(=O)c2ccc3c(c2)C(=O)N(C2CCCCC2)C3=O)no1,–,inactive: 9.42%
COC(=O)c1ccc(CSc2nnc3n(Cc4ccccc4OC)c(=O)c4ccccc4n23)o1,"inconclusive: 39.8 µM [inhibitor, single point]",–
N=c1ccn2c(n1)O[C@@H]1[C@@H](O)[C@H](CO)O[C@H]12,–,inactive: 2.65%
Cc1cc(C(F)F)n2nc(C(=O)Nc3cccc(C(F)(F)F)c3)nc2n1,–,inactive: 11.4%
Cc1nn(Cc2ccccc2)c(C)c1NC(=O)c1cc(-c2ccc3c(c2)OCO3)on1,–,inactive: 6.75%
O=C(CSc1nc2ccccc2[nH]1)c1ccc2c(c1)OCO2,"inconclusive: 39.8 µM [inhibitor, single point]",–
COC(=O)C(CC(C)C)Oc1ccc2c(C)cc(=O)oc2c1 (stereo unspecified),"inconclusive: 39.8 µM [inhibitor, single point]",–
Cc1ccccc1-c1ccc2ncnc(N(C)Cc3ccco3)c2c1,–,inactive: -13%
C/C=C/OC(=O)NC(c1ccccc1)[C@]1(C(C)=O)CCOC1=O (stereo partly specified),–,inactive: 1.75% [at 11.4 µM]
CN(C)c1ccc(S(=O)(=O)c2ccc(Cl)cc2)cc1,"inconclusive: 39.8 µM [inhibitor, single point]",–
CCc1ccc2oc(=O)cc(CN3CCCCC3C)c2c1 (stereo unspecified),"inconclusive: 0.126 µM [inhibitor, full curve, poor fit]",–
CCOC(=O)c1c(N)sc(C(O)(C(F)(F)F)C(F)(F)F)c1-c1ccc(OC)cc1OC,"inconclusive: 25.1 µM [inhibitor, partial curve]",–
Nc1ccc(Cl)c(NC(=O)c2cccs2)c1,"inconclusive: 10 µM [inhibitor, partial curve]",–

Compound,Potency,"activity change, negative = inhibition"
Cc1cc(OC2CCCCC2)nc(-c2ccccc2O)n1,–,inactive: 0.521% [at 11.4 µM]
O=C(NCc1ccco1)Nc1ccc2nsnc2c1,active: 25.1 µM,–
CCOC(=O)N1CCC(NCCNC(=O)c2ccc(Cl)cc2)CC1,–,inactive: -4.05%
O=C1C2CC=C(Cl)CC2C(=O)N1CCc1ccccc1 (stereo unspecified),–,inconclusive: -33% [inhibitor]
S=C(c1ccc(-c2ccc(Cl)c(Cl)c2)o1)N1CCOCC1,active: 10 µM,–
Cc1cc(C)n2cc(CSC3=NCCS3)nc2n1,active: 31.6 µM,–
S=c1[nH]nc(COc2ccc(Cl)cc2)o1,"inconclusive: 31.6 µM [inhibitor, single point]",–
COc1ccc(/C(N)=C/C(=O)C(C)(C)C)cc1,"inconclusive: 25.1 µM [inhibitor, single point]",–
Cn1c(Cc2ccc3c(c2)OCO3)nnc1SCC(=O)N1CCc2ccccc2C1,"inconclusive: 3.16 µM [inhibitor, partial curve]",–
COc1cccc(-c2cncnc2NCc2cccnc2)c1,"inconclusive: 15.8 µM [inhibitor, partial curve]",–
c1ccc(-c2oc3ncnc(NCCCn4ccnc4)c3c2-c2ccccc2)cc1,active: 31.6 µM,–
CC(C)(C)NC(=O)Cn1cc(C#N)c2cc(Br)ccc21,–,inactive: 2.12%
COc1ccccc1N1CSC2=C(C#N)C(c3ccc(SC)cc3)CC(=O)N2C1 (stereo unspecified),active: 1.26 µM,–
COc1ccc(NC(=O)c2ccco2)cc1NC(=O)c1cccnc1,–,inactive: 2.81%
c1cc2c(cc1Nc1nc(-c3ccc4c(c3)OCO4)cs1)OCCO2,"inconclusive: 31.6 µM [inhibitor, single point]",–
O=C(Nc1nccs1)c1ccc2nccnc2c1,"inconclusive: 39.8 µM [inhibitor, single point]",–
C[C@@]12C(=O)OC(=O)[C@@]1(C)[C@@H]1CC[C@@H]2O1,–,inactive: -10.7%
COc1ccc2c(c1)CCc1cc(C(=O)N3CCN(c4ccc(N5CCOCC5)nn4)CC3)sc1-2,active: 31.6 µM,–
CCCOc1ccc(NC(N)=O)cc1OCCC,"inconclusive: 39.8 µM [inhibitor, single point]",–
CC(C)(C)C(=O)NC(=C(Cl)Cl)P(=O)(O)O,–,inactive: -3.01%
CCN1CCC[C@@H]1CNC(=O)c1c(OC)ccc(I)c1O,–,inactive: 9.87%
CCOc1cccc(C=Nc2cc(C)cc(C)c2O)c1O,"inconclusive: 3.16 µM [inhibitor, full curve]",–
COc1ccc(OC)c(-c2cc(C(=O)N3CCc4ccccc4C3)no2)c1,"inconclusive: 31.6 µM [inhibitor, single point]",–
COc1cccc(C2=NOC(C(=O)N3CCN(c4ccccc4)CC3)C2)c1OC (stereo unspecified),"inconclusive: 10 µM [inhibitor, partial curve]",–
FC(F)(F)c1ccccc1-c1nccc(NCc2ccccc2)n1,"inconclusive: 39.8 µM [inhibitor, single point]",–
